PubChem BioAssay AID540267 (National Center for Advancing Translational Sciences (NCATS), 2011)
Among all 340,000 compounds or so, about 530 (0.16%) were called active. The shares of active, inactive and inconclusive entries below differ from those in the screen. No stated cut-off is given here; in the data, active means activity change below about -80%; inconclusive means between about -30% and that limit; inactive means weaker than that.

experiment: Small Molecules that selectively kill Giardia lamblia: qHTS; settings: Giardia lamblia trophozoite viability; at 7.66 µM; active compounds read low;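 further: parasites exposed to compound for two days anaerobically before the ATP read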
Procedure, shortened: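 Trophozoite viability was measured as ATP-dependent luminescence, read 15-30 min after reagent addition. Before that, parasites at 100 cells/well were exposed to compounds for 48 h, anaerobically, at 37 deg C.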
On the % scale 0 is the no-effect control and ±100 the full control effect.

| Compound | activity change |
| --- | --- |
| O=C(NC(=S)Nc1ccccn1)c1ccc([N+](=O)[O-])cc1 | inconclusive: -40.6% [inhibitor] |
| O=C(CCCOc1ccccc1)N1CCN(S(=O)(=O)c2ccc(Cl)cc2)CC1 | inactive: 7.04% |
| Cc1nn(-c2ccccc2)nc1CNC(=O)CC(C)(C)C | inconclusive: -30.4% [inhibitor] |
| O=C(COC(=O)/C=C/c1cccc([N+](=O)[O-])c1)NCCCN1CCCC1=O | inconclusive: -36.5% [inhibitor] |
| CCn1ncc([N+](=O)[O-])c1C(=O)Nc1nc2cccc(C)c2s1 | inconclusive: -67.8% [inhibitor] |
| Cc1ccccc1-c1nc(CN2CCC(C(=O)NC3CCN(Cc4ccccc4)CC3)CC2)c(C)o1 | inconclusive: -33.5% [inhibitor] |
| COc1cc(Nc2ccc(C)cc2)c([N+](=O)[O-])nc1[N+](=O)[O-] | inconclusive: -60.1% [inhibitor] |
| CC(C)c1ccc(NC(=O)C2CCCN(S(=O)(=O)c3cnc[nH]3)C2)cc1 (stereo not drawn) | inconclusive: -34.3% [inhibitor] |
| O=C(COc1cccnc1[N+](=O)[O-])NCCc1ccccc1 | inconclusive: -36% [inhibitor] |
| CN1CC2(C(=O)c3ccccc3)CN(C)CC(C(=O)c3ccccc3)(C1)C2 | inactive: 7.97% |
| COc1ccc(C2=CC(c3cccc(OC)c3)n3nnnc3N2)cc1 (stereo not drawn) | inconclusive: -30.5% [inhibitor] |
| CCOc1nc2c(c(-c3cccs3)c1C#N)Cc1ccccc1-2 | inactive: 15% |
| CN(C)CCCN=c1cc(-c2ccccc2)oc2ccc(Cl)cc12 | active: -86.4% |
| CC(=O)c1ccc(S(=O)(=O)NCCc2csc(-c3cccnc3)n2)cc1 | inactive: 15.2% |
| CC(C)C(=O)c1cn(CC(=O)N2CCCc3ccccc32)c2ccccc12 | inactive: -13.2% |
| O=C1CCC(=O)N1c1ccc(-c2nc3ccccc3s2)cc1 | inconclusive: -41.9% [inhibitor] |
| CCOC(=O)C(C(=O)OCC)C1OC(=O)c2cc3c(cc21)C(=O)OC3C(C(=O)OCC)C(=O)OCC (stereo not drawn) | inactive: -2.99% |
| COc1cc(NC(=O)C2CCN(S(=O)(=O)c3ccc4[nH]c(=O)oc4c3)CC2)cc(OC)c1 | inactive: -13.7% |
| CCCC(=O)Nc1sc(Cc2ccccc2)c(C)c1C(N)=O | inactive: 6.32% |
| COc1c2c(cc3oc(=O)c4c5ccc(O)cc5oc4c13)OC(C)(C)CC2 | inactive: -26% |
| CCCSc1nc2c(c(=O)n1CC)SC(C)C2 (stereo not drawn) | inconclusive: -49.8% [inhibitor] |
| O=C(Nc1cc(-c2ccccc2)nn1C1CCCCC1)c1ccc(Cl)cc1 | inconclusive: -30.8% [inhibitor] |
| Cc1ccccc1N=Nc1c(N)n[nH]c1N | inconclusive: -34.2% [inhibitor] |
| CC(C)CN(C(=O)/C=C/c1nc2ccccc2s1)C1CCS(=O)(=O)C1 (stereo not drawn) | inactive: 3.29% |
| CC(=O)c1ccc(NC(=O)c2ccc([N+](=O)[O-])o2)cc1 | active: -101% |
| Cn1c(N)c(C#N)c2c(c1=S)CSC(C)(C)C2 | inactive: -22% |

| Compound | activity change |
| --- | --- |
| COCCCNC(=O)c1cc(=O)n(Cc2ccc(Cl)cc2)c2ccccc12 | inconclusive: -30.1% [inhibitor] |
| O=C(/C=C/c1ccccc1[N+](=O)[O-])Nc1cccnc1 | inconclusive: -36.6% [inhibitor] |
| CCC(=O)OC1(C(=O)CCl)[C@@H](C)C[C@H]2[C@@H]3CCC4=CC(=O)C=C[C@]4(C)[C@@]3(F)[C@@H](O)C[C@@]21C (stereo partly drawn) | inconclusive: -30.2% [inhibitor] |
| O=C1COc2ccc(C(=O)COC(=O)CNC(=O)c3ccccc3)cc2N1 | inactive: 9.36% |
| N#Cc1c(SCC(=O)Nc2nccs2)sc2c(O)cc(=O)[nH]c12 | inconclusive: -36.5% [inhibitor] |
| Cc1cccc2c1-c1sc(C(=O)NCCCN3CCc4ccccc4C3)cc1CO2 | inconclusive: -31.8% [inhibitor] |
| Clc1ccc(C(Cn2ccnc2)OCc2c(Cl)cccc2Cl)c(Cl)c1 (stereo not drawn) | inconclusive: -36.8% [inhibitor] |
| Cc1nn(Cc2c(F)c(F)c(F)c(F)c2F)c(C)c1NC(=O)c1nn(C)c(C)c1Br | inconclusive: -31.4% [inhibitor] |
| CN1C(=O)CC(N2CCN(c3ccc(Cl)c(Cl)c3)CC2)C1=O (stereo not drawn) | inconclusive: -36.9% [inhibitor] |
| CCC(=O)N1CCN(c2ccc(NC(=O)c3ccc(C#N)cc3F)cc2Cl)CC1 | inconclusive: -30.8% [inhibitor] |
| Cc1ccc(S(=O)(=O)N(Cc2nccn2C)C(C)C)cc1 | inconclusive: -32.9% [inhibitor] |
| COc1cccc(C(=O)NC2CCCc3ccccc32)c1OC (stereo not drawn) | inconclusive: -31.5% [inhibitor] |
| CN1CCCN(C(=O)c2cccc3ccccc23)CC1 | inactive: 19.4% |
| O=C(O)C1CCN(c2ccc([N+](=O)[O-])cc2[N+](=O)[O-])CC1 | inconclusive: -61.3% [inhibitor] |
| CC(=O)Nc1ccc(S(=O)(=O)N(C)c2ccc(OCC(=O)Nc3ccccc3C(C)=O)cc2)cc1 | inactive: -3.44% |
| CC(Oc1cccnc1[N+](=O)[O-])C(=O)Nc1ccc(F)cc1 (stereo not drawn) | inconclusive: -78.7% [inhibitor] |
| Cc1sc2ccccc2c1CNC[C@H]1O[C@@H](n2cnc3c(N)ncnc32)[C@H](O)[C@@H]1O | inconclusive: -31.7% [inhibitor] |
| Cc1ccc2nc(-c3ccc(NS(C)(=O)=O)cc3)cc(-c3ccccc3)c2c1 | inconclusive: -30.5% [inhibitor] |
| O=C(NNC(=O)C1CCCCC1)c1ccco1 | inactive: -5.92% |
| CCCCN(C(=O)c1ccc(S(=O)(=O)N(C)C)cc1)c1ccccc1 | inconclusive: -33.1% [inhibitor] |
| CCc1cccc(NC(=O)C2CCN(S(=O)(=O)c3ccc4c(c3)CC(C)N4C(C)=O)CC2)c1 (stereo not drawn) | inconclusive: -32.1% [inhibitor] |
| CC(Oc1cccnc1[N+](=O)[O-])C(=O)Nc1cccc(Cl)c1 (stereo not drawn) | active: -86.9% |
| O=S(=O)(c1ccccc1Br)N(Cc1ccccc1)Cc1ccco1 | inactive: -6.88% |
| COc1ccc(/C=C/C(=O)Nc2ccccc2C(F)(F)F)cc1 | inconclusive: -31.5% [inhibitor] |
| COC(=O)c1sccc1NC(=O)c1c(-c2ccccc2)noc1C | inactive: -21.7% |
| COc1ccc2nc(NC(=O)CSc3nc4cccnc4n3C)sc2c1 | inconclusive: -36.9% [inhibitor] |

| Compound | activity change |
| --- | --- |
| CN(CC(=O)Nc1ccc(F)cc1)C(=O)c1cccc(S(=O)(=O)N2CCN(c3ccccc3)CC2)c1 | inconclusive: -31.4% [inhibitor] |
| CN1CCN(C(=O)c2cc3ccccc3cc2O)CC1 | inconclusive: -34.7% [inhibitor] |
| O=[N+]([O-])c1ccc(-c2nc(C(Cl)Cl)c3ccccc3n2)cc1 | active: -90.6% |
| CC1CCCN(c2nc3c(c(=O)[nH]c(=O)n3C)n2CCCc2ccccc2)C1 (stereo not drawn) | inconclusive: -37.1% [inhibitor] |
| CCC(=O)Oc1ccc(C(=O)Nc2ccc3c(c2)OCO3)cc1 | inconclusive: -35.7% [inhibitor] |
| Cn1c(=O)c2cn(Cc3ccc(Cl)cc3)cc2n(C)c1=O | inactive: 13.9% |
| CCOc1cc(C(=O)OCc2ccc(OC)cc2)ccc1OCC(=O)N1CCOCC1 | inconclusive: -32.7% [inhibitor] |
| CC(C)CNC(=O)CC(=O)N/N=C/c1ccc(Br)cc1 | inactive: 15.6% |
| O=C(c1ccc(Br)o1)N1CCN(c2ccc3nnc(-c4ccc(F)cc4)n3n2)CC1 | inconclusive: -34.1% [inhibitor] |
| O=C(NCCc1ccccc1)c1ccc(Cl)c([N+](=O)[O-])c1 | inactive: -11.3% |
| O=C(NNC(=S)NC(=O)c1ccccc1)c1ccc([N+](=O)[O-])cc1 | inconclusive: -43.3% [inhibitor] |
| O=C(Nc1nnc(/N=C/c2ccco2)s1)c1ccc(F)cc1 | inconclusive: -39.4% [inhibitor] |
| CCc1ccccc1NC(=O)CSc1nnc(C2CC2)n1CC1CCCO1 (stereo not drawn) | inconclusive: -43.1% [inhibitor] |
| COc1ccc(CN(CCN(C)C)c2ccccn2)cc1 | inconclusive: -41.5% [inhibitor] |
| Cc1cc2sc(NC(=O)c3ccco3)nc2cc1Cl | inconclusive: -40.9% [inhibitor] |
| O=C(C/C=N/OCc1c(Cl)cccc1Cl)c1cnc(-c2ccccc2)s1 | inactive: 3.35% |
| COc1ccc(C(CNC(=O)c2oc3c(Cl)cccc3c2C)N2CCCC2)cc1 (stereo not drawn) | inactive: 21% |
| Cc1ccc([C@H]2C(C(=O)O)=CC[C@@H](c3ccc(Cl)c(Cl)c3)N2S(=O)(=O)c2ccc(C)cc2)cc1 | inconclusive: -41.3% [inhibitor] |
| O=C(NCc1ccc2c(c1)OCO2)c1cnc2n(c1=O)CCS2 | inconclusive: -40.7% [inhibitor] |
| C=CCNC(=S)NNc1nc2sc3c(c2c(=O)[nH]1)CC(C)(C)OC3 | inconclusive: -37.5% [inhibitor] |
| CN(C(=O)CSc1nnc(-c2ccco2)n1N)C1CCCCC1 | inconclusive: -40.1% [inhibitor] |
| CC1=C(C(=O)c2ccccc2)C(c2cn(-c3ccccc3)nc2-c2ccc(Cl)cc2)NC(=S)N1 (stereo not drawn) | inactive: 4.1% |
| COc1ccc(C=CC(=O)c2ccc(OC)c(OC)c2O)cc1OC | inactive: -5.62% |
| O=C(Nc1ccccc1)c1ccc2c(c1)OCCCO2 | inconclusive: -61.2% [inhibitor] |
| Cc1ccnc(NC(=O)C2CCN(S(=O)(=O)c3ccc(C)c(C)c3)CC2)c1 | inactive: 1.77% |
| c1ccc(-c2cn(CC3CCCCC3)nn2)cc1 | inconclusive: -32.6% [inhibitor] |
